# Results taken from PubChem BioAssay AID686978 (National Center for Advancing Translational Sciences (NCATS), 2013).
# Among all 420,000 compounds or so, about 64,000 (15%) were called active. Inconclusive results, whose numbers are uncertain, are shown with a selection of clear calls. Calls follow the shape of the dose curve; as a rule, active = well fitted inhibition curve with a large enough effect; inconclusive = small, poorly fitted or top-dose-only effect; inactive = flat fitted curve, though single readings scatter. Potencies of inconclusive entries are left out as doubtful fits.
# Test: qHTS for Inhibitors of human tyrosyl-DNA phosphodiesterase 1 (TDP1): qHTS in cells in absence of CPT; also: nearly all actives have a fitted effect of over 55% in size
# Settings: DT40 Tdp1-/- hTDP1 cells, no CPT, ATP luminescence, 48 h; activity change, negative = growth inhibition: at 46.2 µM (top of the series)
# Method in brief: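 No-CPT arm: Tdp1-/-;hTDP1 DT40 cells (400/well) plus compounds, incubated ≥48 hr at 37 °C. Readout CellTiter-Glo luminescence.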
# % is scaled to controls: 0 for no effect and ±100 for the full control effect; potency is read from the fitted curve at half-maximal effect; tags tell the direction and shape of the fitted curve.
Structure (SMILES),"activity change, negative = growth inhibition",Potency
CCOC(=O)c1cc2c(=O)n3ccccc3nc2n(CC2CCCO2)c1=NC(=O)c1ccccc1Br (stereo unspecified),inconclusive: -29.8% [inhibitor],
O=S(=O)(c1cccs1)N1CN(Cc2cccs2)c2nc3ccccc3nc21,,active: 16.4 µM
N#CC1=C(N)Oc2n[nH]c(-c3ccc(F)cc3)c2C1c1cccnc1 (stereo unspecified),inactive: -2.86%,
Oc1cccc(/C=N/Nc2nn3cnnc3c3ccccc23)c1,inactive: -23.8%,
Cc1cccc(C(C)C)c1NC(=O)COC(=O)C1CC(=O)N(Cc2ccccc2)C1 (stereo unspecified),inactive: -25.4%,
CCc1nc2c(OCC(=O)c3ccc(Cl)cc3Cl)cccn2c1N(C=O)Cc1ccccc1,,"inconclusive [inhibitor, single point]"
CCOC(=O)c1sc2ncn(CC(=O)Nc3cc(Cl)ccc3C)c(=O)c2c1C,inactive: -5.62%,
Cc1ccc(S(=O)(=O)Nc2ccc3c(c2)C(=O)N([C@H](C)CO)C[C@H](C)[C@@H](CN(C)Cc2ccc(-c4ccccc4)cc2)O3)cc1,,"inconclusive [inhibitor, single point]"
O=C(CN(CC1CCCO1)C(=O)Cn1nnc(-c2ccc(F)cc2)n1)NC1CCCCC1 (stereo unspecified),inactive: -4.68%,
CC1(C)NC(=O)N(CC(=O)OCC(=O)c2ccc(Br)s2)C1=O,inactive: -21%,
COC(=O)c1ccc(N=Cc2c(C(F)(F)F)[nH]n(C)c2=O)cc1,inactive: -7.17%,
O=C(CCC1CCCCC1=O)c1ccccc1 (stereo unspecified),inactive: -0.771%,
O=C(NCCN1CCCCC1)c1cc(Cl)ccc1Cl,inactive: -2.07%,
O=C(Cc1nc2ccccc2[nH]1)c1ccc(Br)cc1,,"inconclusive [inhibitor, partial curve]"
CC(=O)Nc1ccc(-c2cc(-c3ccccc3)nc(-c3ccccc3)n2)cc1,,"inconclusive [inhibitor, single point]"
CCCCOC(=O)c1ccc(NC(=O)c2cnccn2)cc1,inconclusive: -27.7% [inhibitor],
Cc1cccc(NC(=O)CSc2ccc(-c3sc(-c4ccccc4)nc3C)nn2)c1C,,"inconclusive [inhibitor, single point]"
CC(=O)c1ccc(N2CCN(C(=O)c3cc(S(=O)(=O)N4CCCCCC4)cn3C)CC2)cc1,,"inconclusive [inhibitor, single point]"
Cc1ccc(N2CCN(C(=O)C(=O)c3cccc(Br)c3)CC2)cc1,,"inconclusive [inhibitor, single point]"
CC(=O)Nc1cccc(NC(=O)CSc2nccn2Cc2ccc3c(c2)OCO3)c1,,"inconclusive [inhibitor, single point]"
O=C(COc1cc(F)ccc1[N+](=O)[O-])Nc1cc(S(=O)(=O)N2CCCC2)ccc1Cl,,"inconclusive [inhibitor, single point]"
